82 molecules from ChEMBL document CHEMBL1201862, “PubChem BioAssay data set” (2004) can be followed below.

“And” between values parts separate entries of the source, which are not always exact repeats. Equal entries are not always repeated.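 Grown in 96-well plates, cells were treated for 48 hours with each compound at five concentrations. Insufficient inhibition: endpoint recorded as highest concentration tested. GI50 is the concentration that inhibits growth by half.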 The source made the active and inactive calls. No stated cut-off is given here; in the data, active = GI50 up to about 1.1 µM and inactive = higher.

The assay deals with NCI-H322M. Briefly: DTP human tumour cell line panel, 48 h.
In the case of `COc1ccc2c(c1)-c1nn(CCCN(C)C)c3ccc([N+](=O)[O-])c(c13)N2`, the 50% growth inhibitory concentration (GI50) is active: 0.201 µM.
The same measure for `c1ccc(OCc2nnc3n2N=C(c2ccccc2)CS3)cc1`: inactive: > 100 µM; for `N#CC(C#N)=CNCCN1CCN(C=C(C#N)C#N)CC1`: inactive: > 100 µM; for `NS(=O)(=O)c1ccc(NC(=O)c2cccc3cc4ccccc4nc23)cc1`: inactive: 25.5 µM.
As to `COC(=O)c1ccc2cc(O)ccc2c1`, the GI50 is inactive: > 100 µM.
In the case of `Oc1ccc(C(c2ccc(O)cc2)c2ccc(O)cc2)cc1`, the GI50 was inactive: 22.5 µM.
`CCCCC(=O)OC[n+]1ccc2c(C)c3[nH]c4ccc(OC)cc4c3c(C)c2c1`: the GI50 is active: 0.51 µM.
The same measure for `CC1=CCC2(C#N)CCC1C2O` (configuration not stated): inactive: > 100 µM; for `COC(=O)CC1C(C)(C)C(=O)C2CC3=C4CC(=O)OC(c5ccoc5)C4(C)CCC3C1(C)C2=O` (configuration not stated): inactive: > 100 µM; for `CCOC(=O)N1c2ccccc2N(C(=O)OCC)C1CC(=O)/C=C/c1ccccc1`: inactive: 2.69 µM.
Regarding `C#CCOc1c(C(=O)OCC)c(=O)n(C)c2ccccc12`, the GI50 was inactive: > 100 µM.
The same measure for `COC1CCC(OC)C(C2(C3CC(OC)CCC3OC)OC(=O)c3ccccc32)C1` (configuration not stated): inactive: > 100 µM; for `CO/C=C(/C(=O)OC)[C@@H]1C[C@@H]1c1ccc2ccccc2c1`: inactive: 55 µM; for `Cc1nnc2sc(Cc3cnc(N)s3)nn12`: inactive: > 100 µM.
Regarding `CN(C)CCN1C(=O)c2ccccc2C1(O)c1ccc(Cl)cc1` (configuration not stated), the GI50 was inactive: > 100 µM.
As for `NC1CC(=O)c2c(Br)csc21` (configuration not stated), the figure is inactive: > 100 µM; as for `OC(Cc1ccc2ccccc2n1)(C(F)(F)F)C(F)(F)F`, inactive: > 10 µM.
With `Cc1ccc(-c2c(C#N)c(-c3ccccc3)c(C#N)c(=O)n2NS(=O)(=O)c2ccc(C)cc2)cc1`, the GI50 was inactive: 74.6 µM.
As for `CCC1CCCCN1CC(C(C)=O)C(c1ccccc1)c1c(O)c2ccccc2oc1=O` (configuration not stated), the figure is inactive: > 100 µM.
Consider `COc1ccc(-c2nc(-c3cnccn3)n(C3OC(CO)C(O)C(O)C3O)n2)cc1` (configuration not stated), for which the GI50 is inactive: > 100 µM.
The same measure for `COc1ccccc1N1C(=O)CS(=O)(=O)C1c1cccc(Oc2ccccc2)c1` (configuration not stated): inactive: 23.6 µM; for `CN1NC(c2ccccc2)=C(C#N)C(=O)CC1c1ccccc1Cl` (configuration not stated): inactive: > 100 µM.
Consider `COc1ccc(C2SCC(=O)N2NC(=O)C(C)Oc2ccccc2C)cc1` (configuration not stated), for which the GI50 was inactive: > 100 µM.
As for `COc1ccc(N2C(=O)/C(=C\c3cc(OC)c(OC)c(OC)c3)SC2c2ccccc2)cc1` (configuration not stated), the figure is inactive: > 100 µM.
The same measure for `Cc1ccc2c(c1-c1ccccc1)C(=O)OC2`: inactive: > 100 µM; for `C#CCNC(CSSCC(N)C(=O)O)C(=O)O` (configuration not stated): inactive: > 100 µM; for `COCC1OC(OC2OCC3OC4(OCC(O)(C(C)OC)C5OCOC54)OC3C2OC)C(OC)C(O)C1OC1OC(C)C(OC)C(OC2OC(C)C3OC4(CC(O)C(OC5CC(OC6CC(C)([N+](=O)[O-])C(OC)C(C)O6)C(OC(=O)c6c(C)c(Cl)c(O)c(Cl)c6OC)C(C)O5)C(C)O4)OC3(C)C2O)C1O` (configuration not stated): inactive: > 100 µM.
As for `COc1ccc2c3c1O[C@H](c1ccc(O)cc1)[C@H]3[N+](C)(C)CC2`, the figure is inactive: > 100 µM; as for `CC(C)(C)OC(=O)NCC(=O)N1CCCN(C(=O)CNC(=O)OC(C)(C)C)CC1`, inactive: > 100 µM; as for `c1cc(CNC2C3CCC(C3)C2c2c[nH]c3ccccc23)cc(CNC2C3CCC(C3)C2c2c[nH]c3ccccc23)c1` (configuration not stated), inactive: 1.24 µM and inactive: 1.54 µM.
For `CC(C)=CC(C)C(C(O)CCC1(c2ccoc2)OCCO1)S(=O)(=O)c1ccccc1` (configuration not stated), the GI50 was inactive: > 100 µM.
The same measure for `O=C1/C(=C/c2cccs2)NC(=S)N1CN1CCOCC1`: inactive: > 100 µM.
As for `CCSc1s/c(=N/c2ccc(/N=c3\sc(C)c(SC)s3)cc2)sc1-c1ccc(C)cc1`, the figure is inactive: > 100 µM.
As for `N=c1nc(N)c2cc3c(N)nc(=N)c3cc12`, the figure is inactive: 29.8 µM; as for `COc1cc(C(C#N)NNc2nc(C)cc(O)n2)cc(OC)c1OC` (configuration not stated), inactive: > 100 µM; as for `O=C(NCCNCCCNC(=O)c1cc(-c2ccccc2)nc2ccccc12)c1cccc(OCc2ccccc2)c1OCc1ccccc1`, inactive: 1.85 µM.
Regarding `Cc1ccccc1C(CCCO)C(=O)O` (configuration not stated), the GI50 was inactive: > 100 µM.
The same measure for `Clc1ccc(-c2nn3c(C45CC6CC(CC(C6)C4)C5)nnc3s2)cc1`: inactive: > 100 µM.
On to `COc1ccc(/C=C2/S/C(=N\c3ccccc3)N(NC(=O)Cc3ccccc3)C2=O)cc1`, for which the GI50 was inactive: > 100 µM.
As for `CC1(C)COC(c2cccc(C3=NC(C)(C)CO3)c2Br)=N1`, the figure is inactive: > 100 µM; as for `CN(NC(=O)c1cccs1)C1=NCCN1`, inactive: > 100 µM; as for `COC1(OC)C2(Cl)CCC1(Cl)C(OC(C)=O)C2` (configuration not stated), inactive: > 100 µM.
The same measure for `Cc1ccc(SCC(CSCCO)OCn2cnc3c2N=C(N)NC32OCCO2)cc1` (configuration not stated): inactive: > 100 µM; for `CCC(=C(C#N)C#N)c1cc(OC)c(OC)c(OC)c1`: inactive: > 100 µM.
For `COC(=O)c1sc(=O)n(-c2ccccc2)c1SCc1ccccc1`, the GI50 is inactive: > 100 µM.
The same measure for `COc1ccc(/C=C2\CCCC(C(NO)c3ccc(OC)cc3)C2=NO)cc1` (configuration not stated): inactive: 69.3 µM; for `O=C(O)CCCCCOc1cccnc1/C=N/NC1=NCCN1`: inactive: > 100 µM.
The same measure for `C[C@@H]1C[C@@H](O)[C@@]2(O)C13CC(=O)OC(C3)[C@@H](C)[C@@]2(C)CO` (some centres not stated): inactive: > 100 µM.
Take `C/C(=N\NC(=O)Nc1ccccc1Cl)c1ccc(O)cc1`: the GI50 is inactive: > 100 µM.
Take `BrC/C=C/C[P+](c1ccccc1)(c1ccccc1)c1ccccc1`: the GI50 is inactive: 50.7 µM.
Regarding `N#Cc1c(C#N)c(-c2cccc([N+](=O)[O-])c2)n(-c2ccccc2)c1N`, the GI50 was inactive: > 100 µM.
As for `O=C(NCCCCCCNCc1cccc2ccccc12)Nc1cccc2ccccc12`, the figure is inactive: > 100 µM; as for `N#CC1=C(N)n2c(s/c(=C\c3ccc(Cl)cc3)c2=O)=C(c2nc3ccccc3[nH]2)C1c1ccc(Cl)cc1` (configuration not stated), active: 0.897 µM; as for `CCCCNC(=S)Nc1nc(C(=O)NNC(=S)NCc2ccccc2)cs1`, inactive: 28.2 µM.
As for `COc1cccc(NC(=S)Nn2c(C)nc3ccccc3c2=O)c1`, the figure is inactive: > 100 µM; as for `CC1(C)CCSC(/C=C/c2ccccc2)=N1`, inactive: 17.7 µM; as for `CN(C(=O)Cc1cc(Cl)c(Cl)cc1NC(=O)CN)[C@H]1CCCC[C@@H]1N1CCCC1`, inactive: 87.5 µM.
As for `Cc1ccc(NC(=O)CC(=O)N2N=C(N3CCCCC3)CC2c2ccccc2)cc1` (configuration not stated), the figure is inactive: > 100 µM.
In the case of `CC(C)(C)C#C[P+](c1ccccc1)(c1ccccc1)c1ccccc1`, the GI50 was active: 0.521 µM.
In the case of `O=C(O)Cc1ccccc1CCc1ccccc1Cl`, the GI50 is inactive: > 100 µM.
The same measure for `C[C@]12CC[C@H]3[C@@H](CC=C4C[C@@H](N5CCCC5)CC[C@@]43C)[C@@H]1C/C(=C\c1ccc([N+](=O)[O-])cc1)[C@@H]2O`: inactive: 16.8 µM; for `O=C1c2ccccc2-c2c1c(-c1ccc(O)cc1O)nc1ccc3ccccc3c21`: inactive: > 100 µM; for `Cn1cc2ccccc2c1-c1nc(F)nc(Nc2ccc(N)cc2)n1`: inactive: 38.4 µM.
As for `N#CNC1=NC(CCCC(=O)Nc2cccc([N+](=O)[O-])c2)=C(c2nc3ccccc3[nH]2)C(N)N1` (configuration not stated), the figure is inactive: > 100 µM; as for `COCCOC(=O)NCn1cc(-c2ccccc2)nn1`, inactive: > 100 µM.
The same measure for `COc1cc(-c2nn3c(=O)n(-c4ccc(Cl)cc4)c(=O)nc3s2)cc(OC)c1OC`: inactive: > 55.1 µM.
For `CSC1=C(C#N)C(=O)N(c2ccc(Cl)cc2)C(=O)C1C#N` (configuration not stated), the GI50 was inactive: > 100 µM.
As to `CC1=CC(=O)/C(=C/NC(=S)c2ccncc2)C(=O)O1`, the GI50 was inactive: > 100 µM.
The same measure for `CC(C)C(=O)OCN(C)c1nc(N(C)COC(=O)C(C)C)nc(N(C)COC(=O)C(C)C)n1`: inactive: 61.1 µM; for `C=CCCC1CCCCNC1=S` (configuration not stated): inactive: > 10 µM; for `c1cc2cc3c4c5c(cc6ccc7cc8cc9c%10c8c8c7c6c5c8c5c%10c(c1C9N1CCOCCOCCOCCOCCOCC1)c2c45)C3` (configuration not stated): inactive: > 100 µM.
Take `Cc1ccc(S(=O)(=O)/N=C2/N(C)CCCS2(=O)=O)cc1`: the GI50 is inactive: > 100 µM.
The same measure for `O=C1CCSSCCC(=O)NCCN1`: inactive: > 100 µM.
Regarding `CC1OC(n2cc(F)c(=O)[nH]c2=O)CCC1O` (configuration not stated), the GI50 was inactive: > 100 µM.
For `Cc1ccc(S(=O)(=O)NCCN(CCNS(=O)(=O)c2ccc(C)cc2)S(=O)(=O)c2ccc(C)cc2)cc1`, the GI50 is inactive: 27.6 µM.
As for `Cc1cccc(CNNC(=O)c2cc[n+]([BH2-]C#N)cc2)c1`, the figure is inactive: 33.3 µM.
The same measure for `COc1cc(C2c3cc4c(cc3[C@@H](Nc3cccc(CO)c3)C3COC(=O)[C@H]23)OCO4)cc(OC)c1O` (some centres not stated): inactive: 5.92 µM.
`CCC(CCCC[C@H]1CC[C@@H]2CC(=O)C[C@H]12)OC` (some centres not stated): the GI50 is inactive: > 100 µM.
As for `O=S(=O)(O)Nc1ccc(-c2nc3ccccc3s2)cc1Cl`, the GI50 was inactive: > 100 µM.
The same measure for `COc1c(O)c(OC)c2oc(-c3ccc(O)c(O)c3)c(OC)c(=O)c2c1O`: inactive: 17.8 µM.
As for `C[N+](C)(C)CCC(=O)CC[N+](C)(C)C`, the figure is inactive: 89.3 µM.
As for `CC(C)CC(=O)NC(C(=O)NC(C(=O)NC(CC(C)C)C(O)CC(=O)NC(C)C(=O)NC(CC(C)C)C(O)CC(=O)O)C(C)C)C(C)C` (configuration not stated), the figure is inactive: > 100 µM.

By GI50 is commonly meant the concentration that inhibits growth by half.
